Measurements published in publication PMC4336329 (PLoS ONE, 2015).
The whole screen tested about 310,000 compounds, of which about 14,000 (4.5%) showed an effect of 50% or more. Effects have a minus sign here. The list shows a part of the results.

target: human ether-à-go-go-related gene (hERG) potassium channel (human, UniProt Q12809); experiment: primary screen, population patch clamp on CHO cells stably expressing hERG
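Further: peak tail current of the secondary pulse compared with the same well before compound.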

Sequence of human ether-à-go-go-related gene (hERG) potassium channel (Q12809 whole entry, looked up): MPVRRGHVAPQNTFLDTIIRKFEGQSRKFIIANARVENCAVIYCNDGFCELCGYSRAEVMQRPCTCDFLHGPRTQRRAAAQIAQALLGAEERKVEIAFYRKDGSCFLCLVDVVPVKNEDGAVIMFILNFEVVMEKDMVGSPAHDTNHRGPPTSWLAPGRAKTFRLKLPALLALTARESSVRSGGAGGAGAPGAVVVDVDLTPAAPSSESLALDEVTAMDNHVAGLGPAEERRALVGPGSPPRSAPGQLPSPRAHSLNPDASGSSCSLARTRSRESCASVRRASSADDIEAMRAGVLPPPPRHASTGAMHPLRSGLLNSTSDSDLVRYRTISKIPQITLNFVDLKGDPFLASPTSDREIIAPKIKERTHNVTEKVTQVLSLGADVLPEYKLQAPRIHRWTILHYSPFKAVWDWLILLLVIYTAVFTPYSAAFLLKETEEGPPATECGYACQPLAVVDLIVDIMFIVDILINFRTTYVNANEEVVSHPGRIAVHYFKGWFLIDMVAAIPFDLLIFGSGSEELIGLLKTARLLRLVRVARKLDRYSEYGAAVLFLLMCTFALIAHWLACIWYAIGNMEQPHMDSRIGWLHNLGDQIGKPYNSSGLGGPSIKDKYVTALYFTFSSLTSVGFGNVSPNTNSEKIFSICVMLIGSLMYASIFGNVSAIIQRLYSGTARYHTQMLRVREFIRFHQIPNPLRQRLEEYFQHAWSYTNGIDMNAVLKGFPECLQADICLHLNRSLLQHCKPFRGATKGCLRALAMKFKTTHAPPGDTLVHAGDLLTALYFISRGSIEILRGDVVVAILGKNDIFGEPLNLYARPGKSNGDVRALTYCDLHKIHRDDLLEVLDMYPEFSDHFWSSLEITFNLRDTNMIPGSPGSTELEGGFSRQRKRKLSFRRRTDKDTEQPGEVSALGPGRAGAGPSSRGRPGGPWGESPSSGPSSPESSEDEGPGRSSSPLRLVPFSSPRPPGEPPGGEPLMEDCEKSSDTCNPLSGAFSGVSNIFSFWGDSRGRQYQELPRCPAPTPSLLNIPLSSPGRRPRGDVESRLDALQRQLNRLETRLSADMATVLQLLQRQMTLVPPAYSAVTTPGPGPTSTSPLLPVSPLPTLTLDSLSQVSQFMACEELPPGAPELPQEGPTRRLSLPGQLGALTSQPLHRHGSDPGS

SMILES | hERG current change (%, negative = inhibition) at 10uM [%]
CC1=C([N+](=O)[O-])C(c2ccccc2Cl)NC(=O)N1C (centres unmarked) | 0.934
Cc1c(N=Cc2cccs2)c(=O)n(-c2ccccc2)n1C | 10.7
O=C(N/N=C1/CCS(=O)(=O)c2ccc(F)cc21)c1ccccn1 | 14.6
Nc1nc(-c2nc3ccccc3[nH]2)cs1 | 4.62
Cc1cccc2cc(CN(Cc3cccs3)C3(c4nnnn4C4CCCC4)CCCC3)c(=O)[nH]c12 | -11.3
COc1ccc(CN2CCN(C(C)C)C(CCO)C2)cc1Cn1cncn1 (centres unmarked) | 34.1
Cc1cccc(OCCOC(=O)c2c(-c3ccccc3)noc2C)c1 | 13.4
COc1ccc(S(=O)(=O)N2CCC(C(=O)NCc3ccccn3)CC2)cc1Cl | -18.2
COc1ccccc1NS(=O)(=O)c1cc(C(=O)N2CCN(C/C=C/c3ccccc3)CC2)ccc1C | -47.1
CC(=O)c1nnn(-c2ccc(Cl)cc2C#N)c1C | 7.07
O=C1NC(=O)C(=Cc2ccc(-c3ccc(F)cc3O)o2)C(=O)N1 | 16.9
COc1ccc(C(C(=O)NC2CCCC2)N(CCCO)C(=O)c2snc(C(N)=O)c2N)cc1 (centres unmarked) | -20.2
CN1CCc2cc3c(cc2[C@H]1[C@@H]1OC(=O)c2c1ccc1c2OCO1)OCO3 | 7.02
CCOC(=O)C1CCN(C(=O)C2CCCN(S(=O)(=O)c3ccc(OC)c(Cl)c3)C2)CC1 (centres unmarked) | -67.2
CCOC(=O)N1CCN(CC(O)COc2ccc(C(C)C)c(C)c2)CC1.Cl (centres unmarked) | -4.24
Cc1ccc(NC(=O)c2cc(=O)c3ccccc3o2)cc1S(=O)(=O)N1CCCCC1 | -3.72
COc1ccc(C(CNC(=O)c2cccc(S(=O)(=O)NCc3ccccc3)c2)N2CCOCC2)cc1 (centres unmarked) | -40
COC(=O)NC1CCS(=O)(=O)C1 (centres unmarked) | -11.2
CCOc1ccc(-n2c(SCC(=O)Nc3ccc4c(c3)OCCO4)nc3c(c2=O)SCC3)cc1 | -5.48
COCCSc1nnc(NS(=O)(=O)c2ccc(F)cc2)s1 | 3.84
S=c1[nH]nc(-c2ccccn2)n1/N=C/c1ccco1 | 20.3
COCCN(CCOC)Cc1c(O)ccc2c3c(c(=O)oc12)CCC3 | -18

SMILES | hERG current change (%, negative = inhibition) at 10uM [%]
CC(=O)OC(/C(O)=C(\C#N)c1nc2ccccc2[nH]1)c1ccccc1 (centres unmarked) | -2.85
Brc1ccc(OCc2nnc(SCC3CCCCC3)o2)cc1 | 11.1
CCC(CC)NCc1c[nH]c2ccccc12.O=C(O)C(=O)O | -3.29
O=C(NCc1cccnc1)c1ccc(-c2cc(Cl)ccc2Cl)o1 | -41.4
O=S(=O)(c1ccc(SCc2ccc(Cl)cc2)nc1)N1CCCC1 | -8.21
CC(C)CC(=O)Nc1ccc(-c2nc3ccccc3c(=O)[nH]2)cc1 | 26.7
O=C1C=C(NCc2ccc(Cl)cc2)CC(c2ccco2)C1 (centres unmarked) | -82.2
CCOc1ccc(/C=C2\SC(=S)N(NS(=O)(=O)c3ccc(C)cc3)C2=O)cc1OC | -12.6
CSc1ccccc1C(=O)NCCSc1ccc(C)cc1 | -15
COC(=O)COc1c(Cl)cc(C(c2c(C)[nH][nH]c2=O)c2c(C)[nH][nH]c2=O)cc1OC | 14.5
CC(C(=O)O)N1C(=O)/C(=C/c2cccn2C)SC1=S (centres unmarked) | 3.33
CCc1cccc2sc(N(CCCN3CCOCC3)C(=O)CS(=O)(=O)c3ccccc3)nc12.Cl | -7.03
COc1cc(Cl)c(CC(=O)c2c[nH]c3ccccc23)cc1OC | 15.9
CC1CC(C)CN(S(=O)(=O)c2ccc(C(=O)Nc3nnc(-c4cccs4)o3)cc2)C1 (centres unmarked) | 5
O=C(c1cccc(C(F)(F)F)c1)N1CCC(O)(CS(=O)(=O)Cc2ccccc2Cl)CC1 | -8.87
CC(=O)NC1CCN(CC(=O)Nc2cccc([N+](=O)[O-])c2)CC1 | 18.7
COc1ccc(NC(=O)CSc2nnc(Cc3cccn3C)n2-c2ccc(F)cc2)cc1OC | 0.618
COc1ccccc1C(=O)NC(=O)COC(=O)c1ccc(Cl)cc1[N+](=O)[O-] | 21.6
Cc1nc2c(C(=O)NCc3ccccc3)c[nH]n2c(=O)c1Cl | 22.6
CC(C)(C)OC(=O)N1CCC(c2c(C(=O)N3CCN(C4CCCCC4)CC3)cnn2-c2ccc(F)cc2)CC1 | -55.5
O=C1NCCN1CCNS(=O)(=O)c1ccccc1[N+](=O)[O-] | 15.8
COc1cc(O)cc2occ(-c3ccc(O)cc3)c(=O)c12 | -2.1
